Each structure is given as a SMILES string. The whole screen tested about 150,000 compounds, of which about 540 (0.36%) showed an effect of 50% or more. The list shows a part of the results.

Experimental findings from ChEMBL document CHEMBL4888484, “Replenishing the malaria drug discovery pipeline: Screening and hit evaluation of the MMV Hit Generation Library 1 (HGL1) against asexual blood stage Plasmodium falciparum ,using a nano luciferase reporter read-out” (2022) are described below.

The assay has as its system Plasmodium falciparum. The experiment in a line: Primary screen in NF54 nanoGlo assay, in single point, at 2uM, 72h; a lower Z score goes with more inhibition. The format is functional, Erythrocyte. Conditions: timepoint 72 hour.
As usually defined, the % Inhibition is the change of the read-out against control, counted positive when it falls. Regarding `C[C@]1(O)CCCN(C(=O)c2nc(=O)[nH]c3ccccc23)CC1`, the “% Inhibition” value was 5% and the Z score is -1.09.
As to `C[C@@H]1Oc2ccc(NC(=O)c3c(F)cccc3F)cc2CN(CCc2ccc(F)cc2)C1=O`, the “% Inhibition” value is -8% and the Z score is recorded as 0.9.
Take `Cc1cc(COC(=O)c2sc(C)nc2C)nc(C)n1`: the “% Inhibition” value is -5% and the Z score is on record as 0.59.
In the same order, the values of `COc1ccc(OC)c(-c2n[nH]cc2CN2CC(F)(F)C[C@H]2CN2CCOCC2)c1` are -7% and 1.17.
On to `Cc1n[nH]c(=O)c2cc(S(=O)(=O)NCc3ccco3)cn12`, for which the “% Inhibition” value is given as -5% and the Z score is reported as 0.69.
As to `O=C(N[C@H]1C[C@@](CO)(c2ccccc2)C1)c1nnc(-c2ccccc2)o1`, the “% Inhibition” value was found to be 1% and the Z score is -0.08.
In the case of `Cn1nccc1CCNC(=O)N1CC(C)(C)OC(C)(C)C1`, the “% Inhibition” value turned out to be 4% and the Z score is recorded as -0.49.
The like results for `CCNc1nc(C(=O)N2CCOCC23CCC3)cs1` were, in that order, 9% and -1.46.
The like results for `CS(=O)(=O)N1CCC[C@H](CNC(=O)c2cccc(-c3cccc(N)n3)c2)C1` were, in that order, -8% and 1.51.
In the same order, the values of `O=C(NCc1cccnc1)Nc1ccc(-c2nccn2C(F)F)cc1` are -3% and 0.52.
Consider `COc1ccc(-c2cn3c(-c4ccccc4)c(-c4ccccc4)nc3n2-c2cccc(O)c2)cc1`, for which the “% Inhibition” value was -4% and the Z score came out at 0.66.
Turning to `COc1ccc(NC(=O)c2cccc(N(C)S(C)(=O)=O)c2C)cc1`, the “% Inhibition” value is given as -10% and the Z score was 1.42.
`O=C(c1c(F)cccc1Cl)N1CCC[C@H](Oc2ccncn2)C1`: the “% Inhibition” value was -1% and the Z score is 0.2.
In the same order, the values of `COCc1cc(C(=O)NC2C(C)(C)C(NC(=O)c3cc(COC)on3)C2(C)C)no1` (stereo not drawn) are -9% and 1.25.
Consider `CCc1ccc(NC(=O)Cc2n[nH]c(=O)c3cc(-c4ccc(F)cc4)nn23)cc1`, for which the “% Inhibition” value is recorded as -17% and the Z score is given as 2.3.
With `CC(C)(C)c1noc(CNC(=O)c2cccc(-c3ccc4c(c3)OCC4)c2)n1`, the “% Inhibition” value was -2% and the Z score is on record as 0.35.
In the same order, the values of `Cc1nn(CC2CC2)c(=O)n1-c1ccc(C(C)C)cc1` are -4% and 0.52.
Regarding `Nc1ncc(C(=O)N2CCC3(CC2)[C@H](O)C[C@@H]3O)c(C(F)(F)F)n1`, the “% Inhibition” value was -9% and the Z score is on record as 1.16.
The like results for `C[C@@H](CN(CCC(=O)N1CCNCC1)C(=O)c1ccc(C(F)(F)F)cc1)c1ccccc1` were, in that order, 1% and -0.17.
In the same order, the values of `CCC(CC)CS(=O)(=O)NC(=O)Cc1ccc(OC)cc1` are -9% and 1.22.
In the same order, the values of `Cc1nnc(N2CC3CCC(O)C3C2)o1` (stereo not drawn) are 0% and -0.02.
Turning to `CC1CCCCC1N(C)C(=O)CN(C)CCn1cnnc1` (stereo not drawn), the “% Inhibition” value is on record as 2% and the Z score is -0.21.
For the compound `COC(=O)[C@@H]1[C@H](C)Cc2ccccc2N1Cc1nnc(C)o1`, the “% Inhibition” value came to 5% and the Z score was -0.55.
Turning to `Cc1ccccc1[C@]1(O)CCN(C(=O)c2nccn2C)C1`, the “% Inhibition” value is -4% and the Z score amounted to 0.56.
In the same order, the values of `O=C(NCCc1cccs1)c1cc2n(n1)CCCO2` are -18% and 2.75.
Turning to `COC(=O)C1(NCc2cncc(C)c2)CCCCCC1`, the “% Inhibition” value was 3% and the Z score is -0.32.
Take `COc1ccccc1[C@H]1CN(Cc2ccc(N(C)C)nc2)C[C@@H]1C(=O)O`: the “% Inhibition” value is given as -12% and the Z score worked out at 2.28.
The like results for `CC[C@H](NC(=O)c1ccc2c(c1)CCCC2)c1cnn(C)c1` were, in that order, -9% and 1.25.
Consider `CS(=O)(=O)[C@H]1CCCN(c2ccc(C#N)cc2Br)C1`, for which the “% Inhibition” value was -3% and the Z score was determined as 0.37.
With `CC(C)c1cc([C@@H]2CCCN2C(=O)c2nn(C)cc2Cl)on1`, the “% Inhibition” value was -16% and the Z score is given as 2.18.
`Cc1ccc([C@H](C(=O)Nc2ccc(C(C)C)cc2)N(Cc2ccco2)C(=O)Cc2c[nH]c3ccccc23)cc1`: the “% Inhibition” value came to 8% and the Z score was -1.2.
`O=C1CC[C@H](C(=O)N2CC=C(c3cccc4ccccc34)C2)N1`: the “% Inhibition” value is given as -4% and the Z score was determined as 0.5.
The like results for `CCC(C)(C)c1ccc(OCCCCNC[C@H](C)O)c(Cl)c1` were, in that order, -11% and 1.23.
In the same order, the values of `O=C(N[C@H]1CCCc2ccccc21)c1cc(O)ncn1` are -2% and 0.41.
The like results for `CCc1ncc(NC(=O)N2CCCS(=O)(=O)C[C@H]2C2CC2)cn1` were, in that order, -13% and 1.35.
Consider `CN(C)C[C@H]1CN(C(=O)c2cccc(C(F)(F)F)n2)CCO1`, for which the “% Inhibition” value is -11% and the Z score turned out to be 1.03.
The like results for `CCOC1CC(O)(CNc2ncnc3ccsc23)C1(C)C` (stereo not drawn) were, in that order, 2% and -0.32.
In the same order, the values of `Cc1ccc2c(c1)N(C(=O)c1nccn3ccnc13)CCC2` are 5% and -0.58.
Regarding `CC(C)Oc1cncc(C(=O)N(C)Cc2nccn2C)c1`, the “% Inhibition” value was 2% and the Z score is -0.3.
In the same order, the values of `CN(CC(=O)N1CCN(C2CC2)c2cc(Cl)ccc21)S(C)(=O)=O` are 4% and -0.62.
The like results for `CCN(CC)C(=O)CNC(=O)N(C)CC1CCC1` were, in that order, -7% and 0.95.
In the same order, the values of `COC[C@H](O)c1cccc(NC(=O)c2cc(C)sn2)c1` are -1% and 0.23.
Turning to `COCCn1cc(-c2cc(C)cc3nccn23)cn1`, the “% Inhibition” value worked out at 5% and the Z score is listed as -0.64.
The like results for `COc1ccc(CN2CCc3cc(OC)c(OC)cc3[C@@H]2CNC(=O)Cc2ccccc2)cc1` were, in that order, -3% and 0.38.
With `Cc1cc(Cc2nc(C3CC3)no2)n[nH]1`, the “% Inhibition” value was determined as 5% and the Z score is given as -0.5.
Take `O=C(NCCN1CCCCC1)c1cc2n(n1)CCN(Cc1cccc(F)c1)C2=O`: the “% Inhibition” value is recorded as -5% and the Z score came to 0.77.
The like results for `Nc1nnnn1CC(=O)N[C@H]1CCOC[C@@H]1Oc1cccc(F)c1` were, in that order, -11% and 2.14.
In the same order, the values of `COc1ccc(CCC(=O)N2CCC3(CC2)C[C@@H](N2CCN(C(C)C)CC2)CCO3)cc1` are -10% and 1.1.
Regarding `Cc1cc(CNC(=O)N2C[C@H]3CC=CC[C@H]3C2)no1`, the “% Inhibition” value is -18% and the Z score came out at 3.11.
In the same order, the values of `CN1CCC(N(C)S(=O)(=O)C[C@H]2C[C@H]3CCCC[C@H]32)C1=O` (stereo partly drawn) are -11% and 1.63.
In the same order, the values of `CC(C)(C)OC(=O)N1CCC[C@@H]1CCNC(=O)C(c1ccccc1F)N1CCOCC1` (stereo partly drawn) are -8% and 0.77.
In the same order, the values of `Cc1cc(NC(=O)c2c(F)cccc2Cl)nc(C(C)C)n1` are -9% and 1.11.
Turning to `COc1ccc(NC(=O)CCNS(=O)(=O)c2ccc(C)cc2)cc1OC1CCCC1`, the “% Inhibition” value is -4% and the Z score was determined as 0.55.
On to `Cc1noc(C(=O)Nc2ccc(O)cc2)n1`, for which the “% Inhibition” value is given as -7% and the Z score came to 0.84.
On to `Cc1nn(-c2ccc(N3CCOCC3)nn2)c(C)c1CCC(=O)N1CCN(c2ccccn2)CC1`, for which the “% Inhibition” value is given as -8% and the Z score amounted to 1.6.
For `Cc1ccccc1OCC(=O)NC[C@@](O)(c1ccco1)C1CC1`, the “% Inhibition” value is on record as 2% and the Z score is reported as -0.31.
The like results for `CC(C)N(CCc1nccs1)C(=O)c1ccncc1F` were, in that order, 5% and -0.48.
With `CS(=O)(=O)NC[C@@H](c1ccsc1)n1cccn1`, the “% Inhibition” value is listed as -7% and the Z score was 1.35.
With `O=C(c1cscn1)N1CC[C@@]2(CCCN(Cc3ccc(F)c(F)c3)C2=O)C1`, the “% Inhibition” value was -7% and the Z score is 0.99.
Take `O=C(C[C@@H]1C=CCC1)NCCN1CCCCC1=O`: the “% Inhibition” value is -8% and the Z score was found to be 1.08.
With `CC(C)S(=O)(=O)N1CCC[C@H](CCc2noc(-c3ccccn3)n2)C1`, the “% Inhibition” value is listed as -5% and the Z score stood at 0.83.
For the compound `Cc1ccncc1C(=O)NCC(=O)N1CCCCCNC(=O)C[C@H]1c1ccccc1`, the “% Inhibition” value is on record as -9% and the Z score is on record as 1.23.
In the same order, the values of `O=S(=O)([C@H]1CCCN(c2ccc3nccnc3n2)C1)N1CCOCC1` are -21% and 2.64.
The like results for `O=C(NCc1ccc(-c2ccoc2)cc1)c1cncc(Br)c1` were, in that order, -7% and 0.77.
The like results for `N[C@@H](CCCCc1ccccc1)c1ccccc1` were, in that order, -9% and 1.27.
`CC(C)[C@H](NC(=O)Cc1cccc(F)c1F)c1ncnn1C`: the “% Inhibition” value is -9% and the Z score is 0.85.
For the compound `O=C(Cn1nc2c(N3CCCCCC3)nccn2c1=O)NCc1ccc2c(c1)OCO2`, the “% Inhibition” value is -5% and the Z score worked out at 0.95.
The like results for `CC(CC(=O)N1CCC(OCc2ccccn2)C1)c1ccccc1C(F)(F)F` (stereo not drawn) were, in that order, 4% and -0.69.
The like results for `O=S(=O)(c1cc(-c2nnc(C3CCCC3)o2)co1)N1CCN(c2ccccc2)CC1` were, in that order, -8% and 1.05.
On to `Cc1noc(C)c1C(=O)NC[C@H]1Cc2ccccc2CO1`, for which the “% Inhibition” value was -6% and the Z score is listed as 0.74.
As for `C[C@H](NCc1ccon1)c1ccccc1N(C)C`, the “% Inhibition” value turned out to be 0% and the Z score came to 0.
As for `Cc1nc2cc(C(=O)N3CCOC[C@@H]3CC3CCC3)ccc2o1`, the “% Inhibition” value is -1% and the Z score was determined as 0.07.
In the same order, the values of `Cc1c(Cl)c(CN2Cc3ccccc3C[C@@H]2C(=O)NC2CC2)nn1C` are 0% and 0.05.
`O=C(C[C@H]1CCCC1(F)F)Nc1ccc2cnccc2c1`: the “% Inhibition” value is -1% and the Z score was found to be 0.23.
With `Cc1cc(NC(=O)NC23CC2COC3(C)C)nn1C(C)C1CC1` (stereo not drawn), the “% Inhibition” value is -12% and the Z score was 2.2.
For the compound `O=C(Cc1cccnc1)N1CCC(N2C[C@H](OCC3CC3)C23CCOCC3)CC1`, the “% Inhibition” value is recorded as -1% and the Z score was 0.15.
In the case of `COC(=O)c1ccc(-c2noc(CN3CCC(C(=O)N4CCOCC4)CC3)n2)cc1`, the “% Inhibition” value is listed as -1% and the Z score came out at 0.07.
The like results for `COc1cc(C(=O)O)ccc1CCNC(=O)c1nc(C)sc1C` were, in that order, -10% and 1.29.
The like results for `COCCN(CCOC)C1CN(C(=O)c2ccn(C)n2)C1` were, in that order, 4% and -0.81.
In the same order, the values of `CC(=O)c1cn(Cc2ccco2)c(=O)n(C)c1=O` are 30% and -3.89.
As to `COc1ccc(-c2cc(C)no2)cc1S(=O)(=O)N1CCCN(Cc2ccc(F)cc2)C1`, the “% Inhibition” value is 7% and the Z score was -0.95.
On to `CCOC(=O)N1CCC(NC(=O)c2cnn3c(-c4ccc(C(C)C)cc4)ccnc23)CC1`, for which the “% Inhibition” value was 32% and the Z score is listed as -3.58.
The like results for `CC[C@H](NS(=O)(=O)N1CCCC1)c1ncccc1C` were, in that order, -3% and 0.48.
As to `Cc1cc(Cl)cc2c(=O)n([C@H]3CC[C@H](N)C3)cnc12`, the “% Inhibition” value is given as 10% and the Z score was -2.01.
